Experimental data as given in PubChem BioAssay AID485290 (National Center for Advancing Translational Sciences (NCATS), 2010).
The campaign covered roughly 350,000 compounds. About 990 (0.28%) were called active. This list was built around the results that the source calls inconclusive (neither active nor inactive); the mix of calls is not that of the screen. Calls come from the whole dose curve; as a rule, active = well fitted inhibition curve with a large enough effect; inconclusive = small, poorly fitted or top-dose-only effect; inactive = no such curve, though single readings can be large or run the other way. Potencies of inconclusive entries are doubtful fits and often do not repeat.

Target: Tyrosyl-DNA phosphodiesterase 1 (Homo sapiens) (UniProt Q9NUW8)
Sequence of UniProt Q9NUW8 (Q9NUW8 whole entry, looked up): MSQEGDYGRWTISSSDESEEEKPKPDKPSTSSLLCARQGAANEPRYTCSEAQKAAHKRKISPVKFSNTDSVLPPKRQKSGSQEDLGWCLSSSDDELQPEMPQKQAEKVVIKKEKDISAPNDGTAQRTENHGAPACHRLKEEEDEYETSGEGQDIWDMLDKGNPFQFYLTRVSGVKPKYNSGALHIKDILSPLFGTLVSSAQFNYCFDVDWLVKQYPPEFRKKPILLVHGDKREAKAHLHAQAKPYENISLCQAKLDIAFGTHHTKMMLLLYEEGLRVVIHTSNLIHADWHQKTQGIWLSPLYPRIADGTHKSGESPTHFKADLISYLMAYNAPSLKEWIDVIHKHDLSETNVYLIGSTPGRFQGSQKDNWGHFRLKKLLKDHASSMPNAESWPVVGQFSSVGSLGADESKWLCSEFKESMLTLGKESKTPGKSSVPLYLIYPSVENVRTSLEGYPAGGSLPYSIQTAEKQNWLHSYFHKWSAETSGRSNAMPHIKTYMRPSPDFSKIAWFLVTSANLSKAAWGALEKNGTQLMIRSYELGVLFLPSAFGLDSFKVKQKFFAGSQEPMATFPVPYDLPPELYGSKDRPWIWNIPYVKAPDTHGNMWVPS
Experiment: qHTS Assay for Inhibitors of Tyrosyl-DNA Phosphodiesterase (TDP1); note: nearly all actives have a fitted effect of over 40% in size
Settings: recombinant TDP1, AlphaScreen DNA substrate cleavage; activity change, negative = inhibition: at 130 µM (top of the series) unless noted
Method in brief: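 Compounds were preincubated with Tdp1 (1 nM final) for 15 min at room temperature before substrate (15 nM final) started a 5 min reaction; beads (10 ug/ml final) were then added for 10 min before AlphaScreen detection.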
% is set by controls: 0 for no effect and ±100 for the full control effect; potency is the fitted concentration of half-maximal effect; tags give direction and shape of the fitted curve.

Row | SMILES | Potency | activity change, negative = inhibition
1 | Cc1cc2nc3c(=O)[nH]c(=O)[nH]c3nc2c([N+](=O)[O-])c1N | active: 39.8 µM | –
2 | O=C(CSc1nc(NS(=O)(=O)c2ccccc2)cc(=O)[nH]1)Nc1ccc(Cl)cc1 | active: 7.08 µM | –
3 | Cc1ccc(OCC(=O)Nc2cc(S(=O)(=O)N3CCCCC3)ccc2N2CCN(C)CC2)c(C)c1 | – | inactive: 0.661%
4 | Cc1cccc(/C(N)=N/OC(=O)CCCc2ccccc2)c1 | active: 56.2 µM | –
5 | CCOC(=O)CC/C(=N\NC(N)=O)c1ccc(OC)c(Cl)c1 | – | inactive: -0.532%
6 | COc1cc(/C=N/NC(=O)c2ccc(COc3ccccc3Cl)o2)cc(Br)c1O | inconclusive: 20 µM [inhibitor, full curve] | –
7 | CCCCCCOc1ccc(/C(C)=N/NC2=NCCN2)cc1[N+](=O)[O-] | – | inactive: 2.53%
8 | O=C(CSc1n[nH]c(=O)n1Cc1ccccc1)Nc1ccc(F)c(F)c1F | inconclusive: 5.01 µM [inhibitor, single point] | –
9 | O=C1C=C(c2ccc3cc[nH]c3c2)C[C@@H](c2ccc3c(c2)OCO3)C1 | inconclusive: 12.6 µM [inhibitor, full curve] | –
10 | Cc1cc(OCC(=O)O/N=C(\N)c2ccccc2)ccc1Br | inconclusive: 25.1 µM [inhibitor, partial curve] | –
11 | COCCN1C(=O)C(O)=C(C(C)=O)C1c1ccc(F)cc1 (stereo not drawn) | inconclusive: 17.8 µM [inhibitor, partial curve] | –
12 | CC(C)c1cnc2c(c1SCc1cccc(C(F)(F)F)c1)c(=O)n(C)c(=O)n2C | – | inactive: 2.7%
13 | O=C(COC(=O)c1ccc(O)cc1O)NC12CC3CC(CC(C3)C1)C2 | inconclusive: 50.1 µM [inhibitor, partial curve] | –
14 | O=C(CSc1ncnc2ccccc12)NCc1ccco1 | inconclusive: 56.2 µM [inhibitor, partial curve] | –
15 | COc1ccc(S(=O)(=O)NCC(=O)N(CC(=O)NCc2ccco2)Cc2ccccc2)cc1 | – | inactive: 12.7%
16 | N=C1/C(=C\c2ccc(-c3cccc(C(=O)O)c3)o2)C(=O)N=C2SC=C(c3ccccc3)N12 | active: 50.1 µM | –
17 | OCC(O)C(O)C(O)C(O)C(O)CO (stereo not drawn) | inconclusive: 17.8 µM [inhibitor, single point] | –
18 | COc1cc(/C=C2\C(=O)N(c3ccc(S(N)(=O)=O)cc3)N=C2C)ccc1OC(=O)c1ccco1 | inconclusive: 25.1 µM [inhibitor, single point] | –
19 | Nc1nc(SCC(=O)Nc2ccc(OCc3ccccc3)cc2)n[nH]1 | active: 70.8 µM | –
20 | CC1(C)CC(=O)C(N=Nc2cc(S(=O)(=O)N3CCOCC3)ccc2Cl)=C(O)C1 | inconclusive: 7.94 µM [inhibitor, full curve] | –
21 | Cc1cc(C)c(S(=O)(=O)N2CCN(S(=O)(=O)N3CCC(C)CC3)CC2)c(C)c1 | – | inactive: 9.92%
22 | COc1ccc(Cl)cc1NC(=O)NN1CCN(C)CC1 | active: 14.1 µM | –
23 | O=C1Nc2ccccc2SC(c2ccccc2)C1O (stereo not drawn) | inconclusive: 12.6 µM [inhibitor, single point] | –
24 | CCOC(=O)C(=O)NNc1ccc(F)cc1 | inconclusive: 0.794 µM [inhibitor, partial curve, poor fit] | –
25 | COc1cccc(/C=C/C(=O)NCc2ccc(S(N)(=O)=O)cc2)c1 | – | inactive: 2.86%

Row | SMILES | Potency | activity change, negative = inhibition
26 | COc1cccc(OC)c1OC(=O)C1CC(=O)N(c2ccc3c(c2)OCCO3)C1 (stereo not drawn) | inconclusive: 17.8 µM [inhibitor, full curve] | –
27 | CN(CC(=O)Nc1cccc(F)c1)C(=O)CC1CC2CCC1C2 (stereo not drawn) | – | inactive: 0.528%
28 | O=C(CCCCn1c(=O)c2ccccc2n(Cc2ccc(F)cc2Cl)c1=O)NCc1ccco1 | – | inactive: 2.54%
29 | CC(=O)N1CCOc2cc(S(=O)(=O)NCc3ccccc3Cl)c(Cl)cc21 | active: 6.31 µM | –
30 | CCOc1ccccc1CNC(=O)Cn1nc(C)c2c(C)n(-c3ccc(C)cc3)nc2c1=O | inconclusive: 56.2 µM [inhibitor, partial curve] | –
31 | Cc1cc(NC(=O)CSc2ncc(C(=O)O)n2-c2ccc(F)cc2)no1 | inconclusive: 50.1 µM [inhibitor, partial curve] | –
32 | COc1ccc(C(=O)NC(=O)CSc2n[nH]c(N)n2)cc1 | – | inactive: -1.63%
33 | O=C(CSc1ncnc2c1oc1ccccc12)Nc1nc2ccccc2s1 | inconclusive: 89.1 µM [inhibitor, single point] | –
34 | COc1ccccc1N1CCN(C(=O)c2cc3c(=O)n(C)c4ccccc4c3s2)CC1 | – | inactive: 0%
35 | CCC(C)NCCOCCOc1ccc(Cl)cc1Br (stereo not drawn) | inconclusive: 100 µM [inhibitor, single point] | –
36 | CCCCCCn1cc(C(=O)OCC)c(=O)c2cc(F)c(F)cc21 | – | inactive: 4.2%
37 | CCc1ccccc1NC(=O)CNC(=O)c1ccc(OCc2cn3ccccc3n2)cc1 | active: 28.2 µM | –
38 | O=C(O)c1ccc(-n2c(-c3cc(C4CC4)[nH]n3)n[nH]c2=S)cc1 | inconclusive: 3.98 µM [inhibitor, full curve] | –
39 | Cc1ccc(C(=O)N/N=C/c2ccc([N+](=O)[O-])s2)cc1 | inconclusive: 63.1 µM [inhibitor, partial curve] | –
40 | C/C=C\C1=C(CO)[C@H](O)[C@H]2OC2[C@@H]1O (stereo partly drawn) | – | inactive: 24.9% [at 21 µM]
41 | Cc1ccc(N2C(=O)c3sc4nnc(C)c(=O)n4c3C2=O)cc1 | – | inactive: 2.19%
42 | Cc1ccc(OCCSc2nnc(-c3cccs3)o2)cc1Cl | inconclusive: 25.1 µM [inhibitor, single point] | –
43 | COc1ccc(OCC(=O)N2CCN(C(=O)c3ccc([N+](=O)[O-])cc3)CC2)cc1 | – | inactive: -1.24%
44 | CC(=O)Nc1ccc(NC(=O)C2CCCN(S(=O)(=O)c3ccc4c(c3)CCCC(=O)N4)C2)cc1 (stereo not drawn) | inconclusive: 3.55 µM [inhibitor, single point] | –
45 | CCn1nc(-c2ccccc2)c2nc3ccccc3nc21 | inconclusive: 25.1 µM [inhibitor, partial curve] | –
46 | N#C/C(=C\c1cc(Br)c(O)c(Br)c1)c1nc2ccccc2c(=O)[nH]1 | inconclusive: 3.16 µM [inhibitor, single point] | –
47 | COc1cc(/C=N/NC(=O)C(=O)NCc2ccco2)cc(Br)c1O | inconclusive: 17.8 µM [inhibitor, full curve] | –
48 | O=c1[nH]n2c(=O)c3c([nH]c2c1N=Nc1cccc(Cl)c1)CCCC3 | – | inactive: -5.46%
49 | O=C(CSc1nc(O)cc(=O)n1-c1ccccc1)Nc1ccccn1 | inconclusive: 28.2 µM [inhibitor, full curve] | –
50 | CC(=O)c1cc2c(cc1O)OC(C)(C)C=C2 | active: 22.4 µM | –

Row | SMILES | Potency | activity change, negative = inhibition
51 | COCc1cc(C)nc(N/N=C/c2ccc(-c3ccc(C(=O)O)c(Cl)c3)o2)c1C#N | active: 28.2 µM | –
52 | CCOC(=O)C(=O)C1(C(=O)OCC)Oc2cc(OC)cc(OC)c2C(=O)C1c1ccccc1 (stereo not drawn) | inconclusive: 28.2 µM [inhibitor, partial curve, poor fit] | –
53 | O=C1c2ccccc2C(=O)N1CCCc1nc2ccccc2c(=O)n1Cc1ccco1 | – | inactive: 3.85%
54 | CCc1ccc(CNC(=O)C2Cc3cc(S(=O)(=O)N4CCCCCC4)ccc3N2C(C)=O)cc1 (stereo not drawn) | – | inactive: 6.25%
55 | Cn1cnnc1SCC(=O)c1ccc(O)c(O)c1 | inconclusive: 17.8 µM [inhibitor, partial curve] | –
56 | CC(=O)Nc1ccc(S(=O)(=O)NCCc2ccc(F)cc2)cc1 | inconclusive: 25.1 µM [inhibitor, single point] | –
57 | CC(=O)c1cccc(OCC(=O)Nc2ccccc2N2CCOCC2)c1 | inconclusive: 6.31 µM [inhibitor, single point] | –
58 | COc1cccc(N=Nc2c(=O)[nH]n3c(=O)c4c([nH]c23)CCC4)c1 | inconclusive: 22.4 µM [inhibitor, full curve, poor fit] | –
59 | Cc1nn(C)cc1CN1CCC(n2nccc2NC(=O)CCCc2ccccc2)CC1 | inconclusive: 50.1 µM [inhibitor, partial curve] | –
60 | CN1c2ccsc2/C(=N/Nc2ccccc2)CS1(=O)=O | inconclusive: 3.55 µM [inhibitor, single point] | –
61 | COc1ccc(-c2csc(-c3cc4ccccc4oc3=N)n2)cc1 | inconclusive: 15.8 µM [inhibitor, partial curve] | –
62 | Cc1ccc(S(=O)(=O)Oc2ccc(/C=C(/NC(=O)c3ccccc3)C(=O)Nc3ccccc3)cc2)cc1 | – | inactive: -3.81%
63 | Cc1ccc(NC(=O)CN2C(=O)N/C(=C/c3cccn3-c3ccc(C(=O)O)cc3)C2=O)cc1 | active: 0.891 µM | –
64 | CCC(C(=O)O/N=C(\N)c1ccc(C)cc1)c1ccccc1 (stereo not drawn) | inconclusive: 22.4 µM [inhibitor, single point] | –
65 | Cc1ccc(O)c(C2=Nc3ccccc3N=C(c3cccs3)C2)c1 | inconclusive: 28.2 µM [inhibitor, single point] | –
66 | CN(CC(=O)Nc1ccc(F)c(F)c1F)C(=O)/C=C/c1ccco1 | inconclusive: 56.2 µM [inhibitor, partial curve] | –
67 | Cc1c(C)n2c3c(cccc13)CC2 | inconclusive: 79.4 µM [inhibitor, partial curve] | –
68 | O=C1OC(c2cccs2)=N/C1=C/c1ccc(-c2cccc(C(=O)O)c2)o1 | inconclusive: 3.16 µM [inhibitor, full curve] | –
69 | C=CCOc1ccc(Br)cc1/C=C1/SC(=Nc2ccc(C(=O)O)cc2)NC1=O | active: 79.4 µM | –
70 | CCc1nn(CCCC(=O)N2CCN(c3cc(Cl)ccc3C)CC2)c(=O)c2cc3occc3n12 | – | inactive: -2.53%
71 | COc1ccc(C(=O)Nc2cccc(-c3ccc4nncn4n3)c2)cc1 | – | inactive: 0%
72 | NC(=S)Nc1nc2ccccc2[nH]c1=O | inconclusive: 44.7 µM [inhibitor, partial curve] | –
73 | COc1ccc(C)cc1NC(=O)C(OC(=O)CNC(=O)c1ccccc1)c1ccccc1 (stereo not drawn) | active: 126 µM | –
